The campaign covered roughly 52,000 compounds. About 1,700 (3.3%) were called active. Rule as the data show it: active = survival mostly below about 52% (no sharp cut-off); inactive = mostly above about 56%. The list shows a part of the results.

This experiment relates to Wild type. Kind of experiment: S. aureus survival, RN4220 and DeltatarO strains – OD600, teichoic acid synthesis inhibitors, primary screen (AID 463173). The conditions noted are these: S. aureus RN4220 wild type/DeltatarO growth, OD600, 18 h, stronger effect = lower value, screened at 18.75 µg/mL (by protocol).
For `COc1ccc(OC)c(-c2cc(C(=O)Nc3ccc(C)c(C)c3)no2)c1`, the survival was active: -9%. With `O=C(CSc1nc2ccsc2c(=O)n1Cc1ccc(F)cc1)NCc1ccc(Cl)cc1` the figure was inactive: 81%.

On to `CC1=C(C(=O)Nc2ccc(C)cc2C)C(c2ccccc2)n2nc(SCC(=O)c3ccc(C)cc3)nc2N1` (stereo not given), for which the survival was inactive: 136%. With `Cc1cc(Nc2ccc(Br)cc2)n2nc(-c3ccccc3C)nc2n1` the figure was inactive: 62%; with `CN1c2ccc(Cl)cc2-c2nc(SCC(=O)NCc3ccc(F)cc3)ncc2S1(=O)=O`, inactive: 121%. For `CCCCCCOc1ccc(/C=C/C(=O)Nc2sc3c(c2C(=O)OC)CCC3)cc1OC`, the survival is inactive: 70%. Consider `CCc1ccccc1NC(=O)CCNS(=O)(=O)c1ccc2c(c1)CCCC(=O)N2`, for which the survival is inactive: 73%. With `COc1ccc(NC(=O)Cn2c(=O)oc3ccccc32)cc1` the figure was inactive: 73%; with `Cc1nccn1C(=O)c1ccccc1C(=O)O`, inactive: 112%; with `Cc1nn(C)c2c1c(C(F)(F)F)cc(=O)n2CC(=O)NCc1ccc(OC(C)C)cc1`, inactive: 138%. As for `Cn1c(CNc2ccc(Cl)cc2)nnc1SCc1ccc(Cl)cc1`, the figure is inactive: 99%; as for `CCC(C)c1ccc(OCC(=O)Nc2cccc3ccc(C)nc23)cc1` (stereo not given), active: -12%.

As for `CCC(C)NC(=O)c1cc2cc(S(=O)(=O)N3CCCCC3)ccc2n1C` (stereo not given), the survival is active: 14%. With `CCN1CCN(c2ncc3c(n2)CCN(Cc2cc(Br)cs2)C3)CC1` the figure was active: 1%. Turning to `O=C(NCC(c1ccc2c(c1)OCO2)N1CCOCC1)c1ccccc1` (stereo not given), the survival is inactive: 131%. As to `Cc1c(O)nc(SCC(=O)Nc2ccc(Cl)cc2Cl)n(-c2ccc(F)cc2)c1=O`, the survival was inactive: 62%. Consider `CC(C)(C)c1ccc(CSC2=Nc3ccccc3C3=NC(CC(=O)NCc4cccs4)C(=O)N23)cc1` (stereo not given), for which the survival was inactive: 54%.

As to `Cc1cn(C)c(CC(=O)NCc2cccc(Cl)c2)c1C(=O)O`, the survival was active: -3%.

Turning to `O=C(OC(C(=O)NCC1CCCO1)c1ccc(F)cc1)c1ccco1` (stereo not given), the survival was inactive: 100%. With `COc1cc(Cn2c(=O)oc3ccc(C)cc32)ccc1OCCC(C)C` the figure was active: -7%. As for `CC(C)(C)c1ccc(S(=O)(=O)N2CCC(Oc3ccc(-n4cnnn4)cc3)CC2)cc1`, the figure is inactive: 81%. Regarding `O=C(CNC(=O)c1ccc(Cl)cc1)OCc1cc(=O)n2nc(C3CC3)sc2n1`, the survival is inactive: 80%. As for `Cc1ccc(CNS(=O)(=O)c2ccc(N3CCCCS3(=O)=O)cc2)cc1`, the figure is inactive: 92%. Consider `COc1ccc(Nc2oc(-c3ccc(COc4cccc(C)c4)o3)nc2C#N)cc1`, for which the survival was inactive: 116%. With `COC(=O)c1cc(NC(=O)CCc2c(C)nc3c(c(C)nn3C(C)(C)C)c2C)cc(C(=O)OC)c1` the figure was inactive: 74%; with `COC(=O)COc1ccc(C2C(C(=O)OC)=C(C)NC3=C2C(=O)c2ccccc23)cc1OC` (stereo not given), inactive: 57%; with `Cn1nnnc1SCCCNCc1ccc(Cl)cc1`, inactive: 85%. As for `CC(C)c1ccc(C2Sc3ccccc3NC3=C2C(=O)c2ccccc23)cc1` (stereo not given), the figure is inactive: 90%; as for `CCN(CC)CC#CC1(O)CCCCC1`, inactive: 107%. As for `Cc1cc(C)c2c(c1)NC(=O)C2(O)c1c[nH]c2ccccc12` (stereo not given), the survival was inactive: 97%. With `Cc1ccc2c(c1)cc1c(=O)n(Cc3cccc(Cl)c3)nc(C)n12` the figure was inactive: 91%; with `COc1ccc(CCNC(=O)Cc2c(C)c3cc4c(C(C)(C)C)coc4c(C)c3oc2=O)cc1OC`, inactive: 84%. As for `Cc1nc(N2CCOCC2)c2c(C(=O)N3CCN(c4ccccc4F)CC3)c(C)oc2n1`, the figure is inactive: 95%; as for `Cc1ccc(CN2COc3ccc4c(C)cc(=O)oc4c3C2)cc1`, inactive: 66%.

For the molecule `Cc1ccc2nc(NN)nc(-c3ccccc3)c2c1`, the survival was inactive: 100%.

With `O=C(Nc1cc(Cl)ccc1Cl)c1cc(S(=O)(=O)NCCc2ccccc2)ccc1F`, the survival was inactive: 133%. With `CC1CCc2onc(C(=O)N3CCN(c4ccccc4)CC3)c2C1` (stereo not given) the figure was inactive: 121%; with `O=C(COc1ccccc1F)Nc1ccccc1C(=O)OCc1cc(=O)n2nc(C3CC3)sc2n1`, inactive: 92%; with `O=C(NCc1ccc(Cl)cc1)c1cc2c(s1)-c1ccccc1SC2`, inactive: 62%. As for `COc1ccc(-c2nc3c(c(SCC(=O)Nc4cccc(O)c4)n2)Cc2c(CO)cnc(C)c2O3)cc1`, the figure is inactive: 115%; as for `Cc1ccc(C(=O)N(Cc2ccco2)Cc2sccc2C)cc1`, inactive: 80%. As for `CCc1ccccc1NC(=O)Cn1c(=O)n(Cc2ccco2)c(=O)c2ccccc21`, the figure is inactive: 96%; as for `COc1ccc(-c2c(C#N)c(SCC(=O)Nc3cccc(Cl)c3)nc(C)c2C(=O)Nc2ccccc2)cc1OC`, inactive: 147%. Regarding `COc1cc(OC)cc(C(=O)Nc2cc3c(cc2N2CCCCC2)n(C)c(=O)n3C)c1`, the survival was inactive: 83%. With `COc1ccc(CNC(=O)c2cnc3sc(N4CCC(C)CC4)nn3c2=O)c(OC)c1` the figure was inactive: 83%. Consider `CCc1ccc(NC(=O)C2CCN(c3nn4cc(-c5ccc(OC)cc5)nc4s3)CC2)cc1`, for which the survival was inactive: 71%.

Turning to `Cc1ccc(N2C(=O)CC(c3ccccc3F)C3=C2COC3=O)cc1Cl` (stereo not given), the survival is inactive: 150%. Take `CCN(CC)C(=O)Cn1c(=O)n(-c2ccc(Cl)c(Cl)c2)c(=O)c2c(C)c(C(=O)N(CC)CC)sc21`: the survival is inactive: 84%. With `Cc1cccc(S(=O)(=O)Nc2cccc(-c3ccc(N4CCCCC4)nn3)c2)c1` the figure was inactive: 69%.

As for `CCc1nnc2c(N3CCN(c4cccc(C)c4)C(C)C3)nc3ccccc3n12` (stereo not given), the survival is inactive: 80%. As for `COc1cccc(OCc2nnc(SCC(=O)O)o2)c1`, the survival is inactive: 98%. With `N#CC1=C(N)OC2=C(CCc3ccccc32)C1c1ccccc1` (stereo not given) the figure was inactive: 29%. As for `COc1ccc(C2C=C(c3ccc(F)cc3)Nc3nc(-c4ccc(Cl)cc4)nn32)cc1` (stereo not given), the survival is inactive: 105%. As to `COc1ccc(NC(=O)c2ccc3c(c2)N(Cc2cccc(Cl)c2)C(=O)c2ccccc2S3=O)cc1Cl` (stereo not given), the survival is inactive: 118%. On to `CC1CCN(c2nc3c(S(=O)(=O)c4ccccc4)nnn3c3ccc(Cl)cc23)CC1`, for which the survival is inactive: 76%. As for `COc1cccc(Cc2nc3ccccc3nc2SCC(=O)NCCc2ccccc2)c1`, the figure is inactive: 68%; as for `COC(=O)C1=C(C)NC(C)=C(C(=O)OC)C1c1cn(-c2ccccc2)nc1-c1ccco1`, inactive: 111%.

As to `Cc1ccc(-c2nc3ccccc3[nH]2)cc1NC(=O)COc1ccccc1[N+](=O)[O-]`, the survival is inactive: 92%. As to `COc1ccccc1NC(=O)NCCCN1CCN(c2ccc(F)cc2)CC1`, the survival is inactive: 72%. With `O=C(c1cnn(-c2cccc(F)c2)c1-n1cccc1)N1CCN(c2ccccc2F)CC1` the figure was inactive: 78%; with `CC1(C)CC2(CC(C)(C)NC(=O)N2)NC(=O)N1`, inactive: 101%; with `Cc1c(C)n(Cc2ccccc2)c2ccc(C(=O)NCc3ccccc3F)cc12`, inactive: 69%. Take `COc1ccc(-n2nc3c(N4CCC(C(=O)NCc5cccc(F)c5)CC4)nnc(C)c3c2C)cc1`: the survival is inactive: 68%. As for `CC(=O)c1cccc(NC(=O)CN2C(=O)c3ccccc3Sc3ncccc32)c1`, the figure is inactive: 89%. As for `CCCN1CCN(CCCNC(=O)c2ccc3c(c2)sc2nc(-c4ccc(OC)cc4)cn23)CC1`, the figure is inactive: 81%; as for `COc1ccc(C(=O)Nc2cccc(-c3cn4ccsc4n3)c2)cc1OC`, inactive: 76%; as for `Cc1ccccc1OCc1nnc(SCC(=O)Nc2sc(C)c(C)c2C#N)n1-c1ccccc1`, inactive: 112%.

In the case of `CC1=C(C(=O)NCc2ccccc2Cl)C2(CCCCCC2)OC1=O`, the survival is inactive: 22%. With `Cc1ccc2c(CNCC(C)c3ccccc3)c(C(=O)O)n(Cc3ccccc3C)c2c1` (stereo not given) the figure was inactive: 81%; with `Cn1c(SCC(=O)N2CCOCC2)ncc(C(=O)Nc2ccccc2)c1=O`, inactive: 88%.

Turning to `Cc1ccccc1Cn1c(CN2CCC(C(=O)NCc3cccnc3)CC2)cc2ccccc21`, the survival was inactive: 77%. As for `CCOC(=O)C1CCN(C(=O)Cn2nc(C)n3c(cc4sccc43)c2=O)CC1`, the figure is inactive: 85%. For `COc1ccc(NS(=O)(=O)c2ccc3c(c2)C(C(C)C)C(=O)N3)cc1` (stereo not given), the survival is inactive: 70%. With `CCc1nn(CC(=O)NCCC(C)C)c(=O)c2cc3occc3n12` the figure was inactive: 121%; with `CCn1c(C)c(C2N3CC4(C)CN2CC(CC)(C3)C4=O)c2ccccc21` (stereo not given), inactive: 117%. With `Nc1c(C(=O)Nc2ccccc2Cl)c2ccccn2c1C(=O)c1ccc(Cl)cc1` the figure was inactive: 99%. Regarding `COc1ccc(NC(=O)CSc2nc3c([nH]c4ccccc43)c(=O)n2C)cc1`, the survival was inactive: 76%. As for `Cc1ccc(CNC(=O)CSc2ncc(S(=O)(=O)c3ccc(Br)cc3)c(=O)[nH]2)cc1`, the figure is inactive: 136%; as for `COC(=O)c1sccc1S(=O)(=O)N(CC(=O)NCc1ccccc1)c1ccccc1`, inactive: 65%; as for `Cc1ccc(CNC(=O)C(=O)NCC(c2cccs2)S(=O)(=O)c2ccc(C)cc2)cc1` (stereo not given), inactive: 120%. As for `Cc1c(C(=O)N2CCC(C)CC2)c(S(=O)(=O)NCc2ccccc2)c(C)n1C`, the figure is inactive: 53%; as for `COc1cccc(CC(=O)Nc2ccc3nc(N4CCC(C)CC4)cc(C)c3c2)c1`, inactive: 65%.

`c1ccc(NCc2ccncc2)cc1`: the survival is inactive: 105%.

Consider `Cc1nn(C(=O)c2ccccc2F)c(C)c1S(=O)(=O)N1CCOCC1`, for which the survival is inactive: 66%. With `COc1ccc(Nc2ncnc3c2cnn3-c2ccc(C)cc2C)cc1` the figure was inactive: 92%; with `Nc1cnn(C2CCCO2)c(=O)n1` (stereo not given), inactive: 106%. With `O=C(CN1CCCC1)N/N=C/c1ccc(-c2cccc(Cl)c2Cl)o1` the figure was inactive: 109%; with `COc1ccccc1C(=O)Nc1ccc2nc(N3CCC(C)CC3)cc(C)c2c1`, active: 0%.

For the molecule `Cc1ccc(S(=O)(=O)Nc2cccc(C)c2)cc1`, the survival was inactive: 120%. As for `CC(=O)c1cccc(NC(=O)Cn2c(=O)c(CNc3ccc(C)cc3)cc3cc4c(cc32)OCCO4)c1`, the figure is inactive: 77%.
